# Source: PubChem BioAssay AID686979 (National Center for Advancing Translational Sciences (NCATS), 2013)
# Several values for one entry are separate records, joined by “and”; a condition that tells them apart may be missing. Identical values can stand only once. In all, about 420,000 compounds went through this assay and about 50,000 (12%) were called active. Inconclusive means that the source gave no clear call. Such entries were picked first, then a sample of the others. Calls follow the shape of the dose curve; as a rule, active = well fitted inhibition curve with a large enough effect; inconclusive = small, poorly fitted or top-dose-only effect; inactive = flat fitted curve, though single readings scatter. Potencies of inconclusive entries are doubtful fits and often do not repeat.
# Assay: qHTS for Inhibitors of human tyrosyl-DNA phosphodiesterase 1 (TDP1): qHTS in cells in presence of CPT; also: nearly all actives have a fitted effect of over 55% in size
# Details: chicken DT40 Tdp1-/-;hTDP1 cells + 20 nM CPT, ATP luminescence, 48 h; activity change, negative = growth inhibition: at 46.2 µM (top of the series)
# Summary of the method: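 Chicken DT40 Tdp1-/- cells complemented with human TDP1, 400 cells/well, exposed to compounds plus 20 nM camptothecin for at least 48 h at 37 C; viability read as ATP content by CellTiter-Glo luminescence.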
# % is scaled to controls: 0 for no effect and ±100 for the full control effect; potency is read from the fitted curve at half-maximal effect; tags tell the direction and shape of the fitted curve.
Structure (SMILES),Potency,"activity change, negative = growth inhibition"
COc1ccccc1N(CC(O)Cn1c2ccccc2c2ccccc21)S(=O)(=O)c1ccccc1 (stereo not given),"inconclusive: 29.1 µM [inhibitor, single point]",
O=C(NC(=S)Nc1ccccc1N1CCN(C(=O)c2ccccc2)CC1)c1ccccc1F,active: 16.4 µM,
CCc1ccc(NC(=O)N2c3ccccc3Sc3ccccc32)cc1,"inconclusive: 25.9 µM [inhibitor, single point]",
COc1ccc2cc3c(N)nn(C(=O)c4cccc([N+](=O)[O-])c4)c3nc2c1,"inconclusive: 2.59 µM [inhibitor, full curve]",
CC(=O)N1CCN(S(=O)(=O)c2cccc(C(=O)Nc3ccccc3N3CCCCC3)c2)CC1,"inconclusive: 23.1 µM [inhibitor, single point]",
COc1ccc(OC)c(NC(=S)NCCC(c2ccccc2)c2ccccc2)c1,"inconclusive: 29.1 µM [inhibitor, single point]",
COc1ccc(N=C(NN)c2ccc3ccccc3n2)cc1,,inactive: -27.3%
O=C(/C=C/c1cccs1)c1cc(F)ccc1OC(=O)N1CCOCC1,active: 23.1 µM,
COC(=O)CN1C(C)=Nc2ccc(Br)cc2C1c1ccccc1 (stereo not given),,inactive: -16.9%
COc1cccc(C(=O)NC2CCNCC2)c1,,inactive: -5.68%
CCN(CC)C(=O)c1cc([N+](=O)[O-])cc2c1-c1ccc([N+](=O)[O-])cc1C2=C(C#N)C#N,active: 0.651 µM,
CCC(c1nnnn1Cc1ccc2c(c1)OCO2)N1CCN(c2ccc(F)cc2)CC1 (stereo not given),active: 20.6 µM,
Cc1ccc(NC(=O)COC(=O)CCC(=O)c2ccc(C(C)(C)C)cc2)c([N+](=O)[O-])c1,"inconclusive: 23.1 µM [inhibitor, single point]",
Cc1ccc([C@@H]2[C@@H]3C(=O)N(C)C(=O)[C@@H]3[C@@H]3C(=O)Nc4ccccc4C(=O)N23)cc1,,inactive: -1.55%
Cc1cc(C)n(CCC(=O)Nc2ccc3c(c2)OCCO3)n1,,inactive: -2.31%
Cc1cccn2c(=O)c3cc(C(=O)NC(C)C)c(=N)n(Cc4ccncc4)c3nc12,,inactive: -25.6%
COc1ccc(Cl)cc1NC(=O)CN(C)C(=O)CCCNC(=O)c1ccc(Cl)cc1,"inconclusive: 23.1 µM [inhibitor, single point]",
CCc1ccc(NSc2ccccc2[N+](=O)[O-])cc1,"inconclusive: 23.1 µM [inhibitor, single point]",
Cc1ccc(NC(=O)c2ncn(CCCN[C@H](C)c3cccc4ccccc34)n2)cc1C,active: 16.4 µM,
Cc1nn(-c2ccccc2)c(Cl)c1/C=N/NC(=O)CNC(=O)c1ccccc1Cl,active: 20.6 µM,
Cc1ccc2[nH]c(=O)c(CN(C(=O)c3cccs3)c3ccccc3)cc2c1,"inconclusive: 29.1 µM [inhibitor, single point]",
Cc1cc(-c2ccccc2)n2nc(-c3cccc(Br)c3)cc2n1,"inconclusive: 29.1 µM [inhibitor, single point]",
CC1CCN(C(=O)CN2c3ccc(C(C)C)cc3-c3ccccc3S2(=O)=O)CC1,active: 14.6 µM,
O=C(NCCCO)c1nnc(Cc2c(F)cccc2Cl)o1,,inactive: -19.3%

Structure (SMILES),Potency,"activity change, negative = growth inhibition"
COc1ccc(-c2cc(C(=O)Nc3nc4c(C)cccc4s3)c3ccccc3n2)cc1OC,active: 16.4 µM,
Cn1nc(C(=O)NCc2ccc(F)cc2)c2c1-c1ccccc1SC2,"inconclusive: 25.9 µM [inhibitor, single point]",
CC1=C2C3OC(=O)C(C)C3CCC2(C)C=C(Br)C1=O (stereo not given),,inactive: -11.2%
O=C(NCC(c1cccs1)N1CCOCC1)c1cc2ccccc2o1 (stereo not given),"inconclusive: 29.1 µM [inhibitor, single point]",
Cc1ccc(C(=O)O/N=C(\N)c2cccnc2)cc1[N+](=O)[O-],,inactive: 12.6%
Cc1ccc(Cn2c(/C=C/c3ccco3)nc3ccccc32)cc1,"inconclusive: 20.6 µM [inhibitor, single point]",
CCN(CC)S(=O)(=O)c1cccc(C(=O)Nc2sc3c(c2C(N)=O)CCCC3)c1,"inconclusive: 18.4 µM [inhibitor, single point]",
Cc1cc(C(=O)N(C)Cc2c(F)cccc2Cl)c2ccccc2n1,"inconclusive: 29.1 µM [inhibitor, single point]",
Cc1ccc(OCCCC(=O)NNC(=O)c2ccccn2)cc1,active: 6.51 µM,
Cc1ccc(-c2c(C(=O)NCc3ccc(F)cc3)oc(=O)c3ccccc23)cc1,"inactive and inconclusive: 18.4 µM [inhibitor, single point]",
N#Cc1ccccc1Sc1ccccc1C(=O)OCc1nnc(-c2ccccc2)o1,"inconclusive: 20.6 µM [inhibitor, single point]",
COc1ccccc1N1CCN(C(=O)C(=O)c2cn(CC(=O)N3CCCCCC3)c3ccccc23)CC1,"inconclusive: 29.1 µM [inhibitor, single point]",
N#Cc1ccc(CN2CCC3(CC2)CCN(C(=O)c2cc(C(F)(F)F)cc(C(F)(F)F)c2)CC3)cc1,active: 23.1 µM,
COc1ccc(C(=O)C2CCCN(Cc3cccn3-c3nccs3)C2)cc1OC (stereo not given),active: 18.4 µM,
O=C(COC(=O)c1ccc(Br)o1)NCc1ccc(F)cc1,"inconclusive: 29.1 µM [inhibitor, single point]",
O=C(NCc1ccc(OC(F)(F)F)cc1)c1cccc2c1C(=O)c1ccc(N3CCC(Cc4ccccc4)CC3)cc1S2(=O)=O,active: 8.2 µM,
CC(C)CN(CCNC(=O)c1cn(C)c2ccc(S(=O)(=O)N3CCOCC3)cc2c1=O)CC(C)C,"inconclusive: 18.4 µM [inhibitor, single point]",
CCN1C(=NCc2ccc(OC)cc2)N[C@@H](c2ccccc2)[C@H](C(=O)OC)[C@H]1C,,inactive: -24.9%
Cc1ccccc1NC(=O)Cn1c(=O)n(Cc2ccc3c(c2)OCO3)c(=O)c2ccc(C(=O)NC3CCCCC3)cc21,active: 5.8 µM,
CC(=O)c1cccc(NC(=O)c2oc(=O)c3ccccc3c2-c2ccccc2)c1,,inactive: -15.5%
COc1ccc(CCCc2nnc(SCC(=O)Nc3ccc(F)cc3)o2)cc1C,,inactive: -13.5%
O=C(CN1CCC(n2nnc3cc(C(F)(F)F)ccc32)CC1)Nc1ccc2c(c1)OCCO2,"inconclusive: 29.1 µM [inhibitor, single point]",
Cn1cc([C@]2(O)C(=O)Nc3cccc(Cl)c32)c2ccccc21,"inconclusive: 25.9 µM [inhibitor, single point]",
O=S(=O)(Nc1nc2ccccc2nc1N1CCN(CCO)CC1)c1cc(F)ccc1F,active: 23.1 µM,

Structure (SMILES),Potency,"activity change, negative = growth inhibition"
COc1ccc(Nc2nc(C)nc3sc4c(c23)CCC4)cc1O,active: 14.6 µM,
C#CCOCCOCCOCCNc1nc(N2CCN(C(=O)CCCCCCCCCCNC(=O)Cn3cc(C[C@@H](C)O)nn3)CC2)nc(N2CCN(C(=O)CCCCCCCCCCNC(=O)[C@@H]([C@H](C)O)n3cc(C)nn3)CC2)n1,active: 7.31 µM,
CC(C)(C)c1ccc(OC2=CS(=O)(=O)c3ccccc32)cc1,"inconclusive: 25.1 µM [inhibitor, single point]",
C#CCNC(=O)c1cc(-c2ccccc2)sc1N,"inconclusive: 23.1 µM [inhibitor, single point]",
Cc1cc(C)cc(NC(=O)c2oc3ccc4c(c3c2C)C(=O)CC(C)(C)O4)c1,"inconclusive: 0.0058 µM [inhibitor, full curve, poor fit]",
CCOC(=O)c1sc(N(Cc2ccccc2)C(=O)CSc2nnc(C3CC3)n2N)nc1C,"inconclusive: 14.6 µM [inhibitor, partial curve]",
COc1cccc(CN(C)c2nc(-c3cccs3)nc3ccccc23)c1,active: 18.4 µM,
Fc1ccccc1COc1ccccc1CNCc1ccncc1,"inconclusive: 18.4 µM [inhibitor, single point]",
Cc1ccc(OCCC(=O)OCC(=O)N2CCN(S(=O)(=O)c3ccc(C)cc3C)CC2)cc1,"inconclusive: 29.1 µM [inhibitor, single point]",
CSCCC(NS(=O)(=O)c1ccc(Cl)cc1)C(=O)OCC(=O)N1CCCc2ccccc21 (stereo not given),active: 23.1 µM,
COc1ccc(NC(=O)Nc2cccc3c2O[C@H](CN(C)C(=O)Nc2ccc(C(F)(F)F)cc2)[C@@H](C)CN([C@H](C)CO)C3=O)cc1,active: 25.9 µM,
O=C(C1CCN(c2nnc(N3CCCC3=O)s2)CC1)N1CCN(c2cccc(C(F)(F)F)c2)CC1,active: 8.2 µM,
Fc1ccccc1Cn1nnc2c(NCCc3ccccn3)ncnc21,,inactive: -16.3%
Cc1ccoc1C(=O)NCCCNC(=O)c1occc1C,"inconclusive: 29.1 µM [inhibitor, single point]",
O=C(COC(=O)c1cccs1)Nc1ccccc1Cl,,inactive: 8.81%
CSc1ccc(C(=O)Nc2ccc(-c3nc4ccccc4s3)c(O)c2)cc1,"inconclusive: 1.16 µM [inhibitor, full curve]",
O=C(Nc1ccccn1)c1ccc([N+](=O)[O-])o1,active: 16.4 µM,
CCOC(=O)/C(=N/Nc1ccc(Cl)cc1)S(=O)(=O)c1ccccc1,,inactive: -26.2%
O=C(CSc1nc(SCC(=O)NCc2ccccc2)n(-c2ccccc2)n1)NCc1ccccc1,"inconclusive: 13 µM [inhibitor, partial curve]",
CCOc1ccccc1-c1nc(CN2CCCC2c2nccs2)c(C)o1 (stereo not given),"inconclusive: 29.1 µM [inhibitor, single point]",
CC[C@H](C)[C@@H](NC(=O)O[C@@H]1C(=O)c2cc(OC)ccc2O[C@H]1c1ccc(OC)c(Br)c1)C(=O)OC,"inconclusive: 29.1 µM [inhibitor, single point]",
O=C(Nc1nccs1)c1cc(-c2ccccn2)nc2c(Cl)cccc12,"inconclusive: 23.1 µM [inhibitor, partial curve]",
